# Some of the results follow. At the low end of the ranking, values are background and their order means little.
# Molecular target: GST-SBP-SLBP (stem-loop binding protein) (UniProt Q14493)
# Experiment: targeted RNA Bind-n-Seq;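 note: DESeq read counts versus GST-SBP nonspecific binding control pulldown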
# Details: RBNS binding buffer: 25 mM Tris pH 7.5, 150 mM KCl, 3 mM MgCl2, 0.1% Tween, 0.5 mg/mL BSA, 1 mM DTT; 27 nM protein, 750 pM RNA pool; temperature not stated; high values mean tight binding
row,Sequence,binding signal (log2 fold change)
1,GGUCACGUCUCAAUCAACUCUUCUCCCAGGGAAAGCCCUGGCAUUCUCAACAGCUCGCAGUCAAG,-0.0709
2,GGUCACGUCUCAAUCAACUCAACUUCAGGAGUUUCCUCCUGUAUUCUCAACAGCUCGCAGUCAAG,0.0768
3,GGUCACGUCUCAAUCAACUCUAUUUCAGGAGUUUACUCCUGCUAUCUCAACAGCUCGCAGUCAAG,0.084
4,GGUCACGUCUCAAUCAACUCAAUUCCAGGAGUUUCCUCCUGUUUUCUCAACAGCUCGCAGUCAAG,0.113
5,GGUCACGUCUCAAUCAACUCAUCCUCCAGGGAAAGCCCUGGCUAAUUCAACAGCUCGCAGUCAAG,0.254
6,GGUCACGUCUCAAUCAACUCAAUUCCCAGGGAAACCCCUGGCUAACUCAACAGCUCGCAGUCAAG,-0.0125
7,GGUCACGUCUCAAUCAACUCAAACGAGGGGGGGAAAACCCCUUUACCCUCCAUUUCAACAGCUCGCAGUCAAG,0.106
8,GGUCACGUCUCAAUCAACUCCAUCGAGGGGGGGAAAACCCCUUUACCCUCUACAUCAACAGCUCGCAGUCAAG,-0.249
9,GGUCACGUCUCAAUCAACUCAUGUCCAGGAGUUUUCUCCUGUUAAUUCAACAGCUCGCAGUCAAG,-0.0274
10,GGUCACGUCUCAAUCAACUCUCUAGAGGGGGGGAAAACCCCUUUACCCUCAACUUCAACAGCUCGCAGUCAAG,-0.0416
11,GGUCACGUCUCAAUCAACUCAUUCUCCAGGGAAAUCCCUGGCAUUUUCAACAGCUCGCAGUCAAG,-0.0443
12,GGUCACGUCUCAAUCAACUCAUCGUCAGGAGUUUACUCCUGUUAACUCAACAGCUCGCAGUCAAG,-0.114
13,GGUCACGUCUCAAUCAACUCUAUUUCAGGAGUUUACUCCUGCUAUUUCAACAGCUCGCAGUCAAG,0.101
14,GGUCACGUCUCAAUCAACUCUUUUCCCAGGGAAAACCCUGGUUUUCUCAACAGCUCGCAGUCAAG,0.141
15,GGUCACGUCUCAAUCAACUCUUCUCCCAGGGAAAUCCCUGGUAAUCUCAACAGCUCGCAGUCAAG,0.041
16,GGUCACGUCUCAAUCAACUCUUUUCCAGGAGUUUUCUCCUGUUUUUUCAACAGCUCGCAGUCAAG,0.135
17,GGUCACGUCUCAAUCAACUCACUAGAGGGGGGGAAAACCCCUUUACCCUCGUUAUCAACAGCUCGCAGUCAAG,-0.0946
18,GGUCACGUCUCAAUCAACUCUAUUCCAGGAGUUUACUCCUGUAUACUCAACAGCUCGCAGUCAAG,0.0985
19,GGUCACGUCUCAAUCAACUCUUCCCCCAGGGAAAACCCUGGCAAAUUCAACAGCUCGCAGUCAAG,0.235
20,GGUCACGUCUCAAUCAACUCUUUCGCAGGAGUUUCCUCCUGGUAUCUCAACAGCUCGCAGUCAAG,0.0128
21,GGUCACGUCUCAAUCAACUCUACUCCAGGAGUUUACUCCUGCUUAUUCAACAGCUCGCAGUCAAG,-0.277
22,GGUCACGUCUCAAUCAACUCCUUAGAGGGGGGGAAAACCCCUUUACCCUCGUCAUCAACAGCUCGCAGUCAAG,0.106
23,GGUCACGUCUCAAUCAACUCUUUCGCAGGAGUUUACUCCUGGUUUUUCAACAGCUCGCAGUCAAG,-0.098
24,GGUCACGUCUCAAUCAACUCAGUCCCAGGAGUUUCCUCCUGCAAAUUCAACAGCUCGCAGUCAAG,-0.101

row,Sequence,binding signal (log2 fold change)
1,GGUCACGUCUCAAUCAACUCAACUCCAGGAGUUUACUCCUGUUUUCUCAACAGCUCGCAGUCAAG,-0.0938
2,GGUCACGUCUCAAUCAACUCUCUAGAGGGGGGGAAAACCCCUUUGCCCUCAACUUCAACAGCUCGCAGUCAAG,0.124
3,GGUCACGUCUCAAUCAACUCUUAAGAGGGGGGGAAAACCCCUUUGCCCUCAACUUCAACAGCUCGCAGUCAAG,0.148
4,GGUCACGUCUCAAUCAACUCUUUUUCCAGGGAAAUCCCUGGCUAACUCAACAGCUCGCAGUCAAG,-0.096
5,GGUCACGUCUCAAUCAACUCUAUUCCCAGGGAAAUCCCUGGCUAUCUCAACAGCUCGCAGUCAAG,0.0246
6,GGUCACGUCUCAAUCAACUCUUCCUCCAGGGAAAGCCCUGGUAUUUUCAACAGCUCGCAGUCAAG,-0.0981
7,GGUCACGUCUCAAUCAACUCUAUCCCCAGGGAAACCCCUGGCUAAUUCAACAGCUCGCAGUCAAG,0.12
8,GGUCACGUCUCAAUCAACUCAAUCUCAGGAGUUUACUCCUGUUUUCUCAACAGCUCGCAGUCAAG,-0.0401
9,GGUCACGUCUCAAUCAACUCUUCUCCCAGGGAAAACCCUGGUAAAUUCAACAGCUCGCAGUCAAG,-0.223
10,GGUCACGUCUCAAUCAACUCAGUCUCCAGGGAAAACCCUGGCAUUUUCAACAGCUCGCAGUCAAG,-0.2
11,GGUCACGUCUCAAUCAACUCCUAAGAGGGGGGGAAAACCCCUUUACCCUCCAACUCAACAGCUCGCAGUCAAG,-0.209
12,GGUCACGUCUCAAUCAACUCAAUCUCAGGAGUUUACUCCUGCUAUCUCAACAGCUCGCAGUCAAG,0.0959
13,GGUCACGUCUCAAUCAACUCUUUUUCAGGAGUUUUCUCCUGUAAAUUCAACAGCUCGCAGUCAAG,0.0343
14,GGUCACGUCUCAAUCAACUCUUCGCCAGGAGUUUCCUCCUGCUUAUUCAACAGCUCGCAGUCAAG,0.128
15,GGUCACGUCUCAAUCAACUCUAUUCCAGGAGUUUCCUCCUGUAUAUUCAACAGCUCGCAGUCAAG,0.0428
16,GGUCACGUCUCAAUCAACUCUAACGAGGGGGGGAAAACCCCUUUGCCCUCAAAUUCAACAGCUCGCAGUCAAG,-0.226
17,GGUCACGUCUCAAUCAACUCAUCUCCAGGAGUUUUCUCCUGUUUAUUCAACAGCUCGCAGUCAAG,-0.0179
18,GGUCACGUCUCAAUCAACUCAUCCCCCAGGGAAACCCCUGGCUUACUCAACAGCUCGCAGUCAAG,-0.0842
19,GGUCACGUCUCAAUCAACUCAAUCCCAGGAGUUUGCUCCUGUAAUCUCAACAGCUCGCAGUCAAG,0.231
20,GGUCACGUCUCAAUCAACUCAUCGCCAGGAGUUUACUCCUGUAUUUUCAACAGCUCGCAGUCAAG,-0.0228
21,GGUCACGUCUCAAUCAACUCUUCCCCCAGGGAAAACCCUGGUUAUUUCAACAGCUCGCAGUCAAG,0.0358
22,GGUCACGUCUCAAUCAACUCUACGGAGGGGGGGAAAACCCCUUUACCCUCAAUCUCAACAGCUCGCAGUCAAG,0.159
23,GGUCACGUCUCAAUCAACUCAAUCCCAGGAGUUUACUCCUGUAAUGUCAACAGCUCGCAGUCAAG,-0.0722

# — PMC5892938
